Results: PubChem BioAssay (NCATS)
The shares of active, inactive and inconclusive entries below differ from those in the screen. A potency beside an inconclusive call is a rough fit, not a confirmed value. Calls of active or inactive are those of the source. Calls come from the whole dose curve; as a rule, active = well fitted cell-killing curve with a large enough effect; inconclusive = small, poorly fitted or top-dose-only effect, or effect the other way; inactive = no such curve, though single readings can be large or run the other way.

How the values were obtained:
[1] = Viability qHTS for spleen associated tyrosine kinase inhibitor (SYKi) naive MV4-11 cells (AID 1963823); settings: MV4-11 AML viability, CellTiter-Glo luminescence, 72 h; series mostly up to 45 µM; note: nearly all actives have a fitted effect of over 40% in size
Method in brief: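 Cells: MV4-11, SYK inhibitor naive, 500 per well. Treatment: library compounds, 72 hr, 37 C, 5% CO2. Read-out: CellTiter-Glo luminescence after 10 min RT.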

[2] = Viability qHTS for spleen associated tyrosine kinase inhibitor (SYKi) drug resistant MV4-11 cells (AID 1963824); note: nearly all actives have a fitted effect of over 35% in size
Method in brief: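 CellTiter-Glo luminescence, read 10 min after reagent addition, reports viability after a 72 hr compound exposure. Cells are an MV4-11 line made resistant to SYK inhibition, seeded at 500 per well onto compound-containing plates.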
Potency is the fitted concentration of half-maximal effect; tags give direction and shape of the fitted curve.

Row | SMILES | Potency [1] | Potency [2]
1 | CC(C)C[C@H](C(=O)O)c1cc(-c2ccc(C(F)(F)F)cc2)cc(-c2ccc(C(F)(F)F)cc2)c1 | inconclusive: 5.17 µM [cytotoxic, full curve] | inconclusive: 2.31 µM [cytotoxic, full curve]
2 | N#Cc1cccc(-c2nc(-c3cccnc3)no2)c1 | inactive | inconclusive: 7.96 µM [cytotoxic, partial curve, poor fit]
3 | CC(C)=CCc1cc2c(cc1O)OC[C@H]1c3ccc(O)cc3O[C@@H]21 | inconclusive: 11.4 µM [cytotoxic, single point] | inconclusive: 4.04 µM [cytotoxic, full curve, poor fit]
4 | OC[C@H]1O[C@@H](Oc2ccc(O)c3cccc(O)c23)[C@H](O)[C@@H](O)[C@@H]1O | inconclusive: 20.2 µM [cytotoxic, single point] | inconclusive: 12.8 µM [cytotoxic, partial curve]
5 | CN/C(=C\[N+](=O)[O-])NCCSCc1ccc(CN(C)C)o1 | inconclusive: 13.3 µM [cytotoxic, partial curve, poor fit] | inconclusive: 15 µM [cytotoxic, partial curve, poor fit]
6 | C/C=C(/C)C(=O)OC1C=C2C3C(C)C(C)C(OC(=O)C(C)C(C)O)CC3(C)CCC2(C)C2(C)CC(OC(C)=O)C3C(C)(C)C(O)C(=O)CC3(C)C12 (stereo not drawn) | inconclusive: 6.11 µM [cytotoxic, single point] | active: 4.32 µM
7 | C=C1CC[C@@H]2[C@](C)(CO)[C@H](O[C@@H]3O[C@H](CO)[C@@H](O)[C@H](O)[C@H]3O)CC[C@@]2(C)[C@@H]1C/C=C1/C(=O)OC[C@H]1O | inconclusive: 3.17 µM [rising, single point] | inconclusive: 1.26 µM [cytotoxic, partial curve, poor fit]
8 | COc1ccc(S(=O)(=O)N2CCc3cccc(-c4ccncc4)c32)cc1 | active: 0.833 µM | active: 0.833 µM
9 | COC1CCN(c2cccc(-c3cc(NC(C)=O)nc(-n4nc(C)cc4C)n3)n2)CC1 | inconclusive: 10.3 µM [cytotoxic, partial curve] | inconclusive: 11.6 µM [cytotoxic, partial curve]
10 | C=C1C(OC(C)=O)C(=O)C2C(C)(C)C(OC(C)=O)CCC2(C)C1CC(OC(C)=O)/C(C)=C/COC(C)=O (stereo not drawn) | inconclusive: 10 µM [cytotoxic, single point] | inconclusive: 12.6 µM [cytotoxic, partial curve, poor fit]
11 | CC/C=C\CC1C(=O)C=CC1(CCCCCCCC(=O)O)OC(C)=O (stereo not drawn) | inconclusive: 12.8 µM [cytotoxic, single point] | inconclusive: 20.2 µM [cytotoxic, single point]
12 | N#Cc1ccc(C(=O)N2CCC3(CC2)N=C(N)c2c(F)ccc(F)c2N3)cn1 | inactive | inactive
13 | Cc1nc([N+](=O)[O-])cn1-c1ccc([N+](=O)[O-])cc1 | inconclusive: 0.335 µM [rising, full curve, poor fit] | inconclusive: 18.8 µM [cytotoxic, single point]
14 | CCS(=O)(=O)N(Cc1cccnc1)c1cccc(-c2ccc(C#N)cc2)c1 | inconclusive: 20.6 µM [cytotoxic, partial curve, poor fit] | active: 20.6 µM
15 | Cc1c(Cl)cccc1S(=O)(=O)Nc1nc(NCCc2ccccc2)nc2c1CN(Cc1ccccc1)CC2 | active: 16.4 µM | active: 13 µM
16 | CCCCCCCCCCCCCC#CC(=O)[C@@H]1COC(C)(C)N1C(=O)OC(C)(C)C | inconclusive: 11.6 µM [cytotoxic, partial curve] | inactive
17 | COc1cc2oc(-c3ccc(O)cc3O)cc2c(OC)c1CC=C(C)C | inconclusive: 10.1 µM [cytotoxic, partial curve] | inconclusive: 11.4 µM [cytotoxic, partial curve, poor fit]
18 | Nc1cc(=O)[nH]c(N)n1 | inactive | inactive
19 | CC(C)/C=C1\NC(=O)C(C(C)C)n2c1nc1ccccc1c2=O (stereo not drawn) | inconclusive: 12.8 µM [cytotoxic, single point] | inconclusive: 16.1 µM [cytotoxic, single point]
